From patent US20240269278A1, “ANTI-CD47 ANTIBODY FOR COMBINED TREATMENT OF BLOOD TUMOR” (Nanjing Shunxin Pharmaceuticals Co., Ltd. of Chiatai …, priority 2021, published 2024)

How the values were obtained:
[1] = Thermostability assay based on Nano DSF (Prometheus NT.48); assay type: physicochemical
Method: The high-throughput protein stability analyzer Prometheus NT.48 is an instrument for acquiring various types of data such as protein molecular structure stability, aggregation stability, and colloid dispersion stability. The melting temperatures (Tm) and the aggregation temperatures (Tagg) of the anti-CD47 chimeric antibodies and the anti-CD47 humanized antibodies were determined using this instrument.

HL60 cells = assay: Promotion of macrophage phagocytosis of tumor cells (flow cytometry); assay type: cell-based, human; settings: CFSE-labeled HL60 cells, human macrophages
Method: The ability of the anti-CD47 antibodies to promote the phagocytosis of tumor cells by macrophages having SIRPα on the cell surface was determined based on flow cytometry.
Monocytes were isolated from human peripheral blood mononuclear cells (PBMC, Sailybio, Cat. No. 190056) using a monocyte isolation kit ([…], Cat. No. 19058), plated into a 24-well plate (Greiner bio-one, Cat. No. 662-160) at […] cells per well, and induced under 100 ng/mL stimulating factor M-CSF (R&D Systems, Cat. No. 216-MC-010) for 7 days to form macrophages. 1×10^6 target cells HL60 (Shanghai Institute of Biochemistry and Cell Biology, Chinese Academy of Sciences, Cat. No. TCHu23) were suspended in […] CFSE (BD Biosciences, Cat. No. 565082) fluorescent dye (diluted with a PBS buffer to the desired concentration), incubated in a water bath at 37° C. in the dark for 15 min, and washed with a PBS buffer to prepare CFSE-labeled HL60 cells, which were then incubated with each of 10 μg/mL and 1 μg/mL anti-CD47 antibodies (see Table 3 for chimenic antibodies, and see Table 4 for humanized antibodies) in an incubator at 37° C. with 5% CO2 for 1-2 h. The HL60 cells after the incubation were washed three times with a PBS buffer and added to the macrophages. The cells were incubated in an incubator at 37° C. with 5% CO2 for 2-4 h. After the cells were washed three times with a PBS buffer, a mixture of 1260 μL of PBS, 20 μL of anti-APC-CD14 (APC MouseAnti-Human CD14, BD Biosciences, Cat. No. 555399), and 20 μL of PE-CD11b (PE Mouse Anti-Human CD11b/1Mac-1, BD Biosciences, Cat. No. 555388) antibody was added to each well. The cells were incubated at 4° C. in the dark for 30 min, washed three times with a PBS buffer, and digested with trypsin (Gibco, Cat. No. 12604-013). The rate of phagocytosis (%) by the macrophages was determined using a flow cytometer (BD Biosciences, model: C6).

Molecule | Tagg (aggregation temperature) [1] [°C] | Tm (melting temperature) [1] [°C] | rate of phagocytosis (HL60 cells; 1 μg/mL antibody) [%] | rate of phagocytosis (HL60 cells; 10 μg/mL antibody) [%]
hz3F10-5.2: humanized anti-CD47 antibody, heavy chain SEQ ID NO: 149, light chain SEQ ID NO: 151 (antibody, heavy chain; light chain) heavy: QVQLVQSGAEVKKPGSSVKVSCKASGYTFSRYWIEWVRQAPGQGLEWMGEFIPGSDTTNYAQKFQGRVTITAEISTNTAYMELSSLRSEDTAVYYCARGGLRRMDYWGQGTLVTVSSASTKGPSVFPLAPCSRSTSESTAALGCLVKDYFPEPVTVSWNSGALTSGVHTFPAVLQSSGLYSLSSVVTVPSSSLGTKTYTCNVDHKPSNTKVDKRV[omitted - human IgG4 Fc with S228P (EU numbers)] light: DIQMTQSPSSLSASVGDRVTITCRASSSVSSTYLHWYQQKPGKAPKLWIYTTSTLASGVPSRFSGSGSGTSYTLTISSLQPEDFATYYCQQFSDSTWTFGQGTKLEIKRTVAAPSVFIFPPSDEQLKSGTASVVCLLNNFYPREAKVQWKVDNALQSGNSQESVTEQDSKDSTYSLSSTLTLSKADYEKHKVYACEVTHQGLSSPVTKSFNRGEC | 62.67 | 68.69 | 47.06 | 29.6
hz3F10-1.1: humanized anti-CD47 antibody, heavy chain SEQ ID NO: 109, light chain SEQ ID NO: 111 (antibody, heavy chain; light chain) heavy: QVQLVQSGAEVKKPGSSVKVSCKASGYTFSRYWIEWVRQAPGQGLEWMGEFIPGSDTTNYAQKFQGRVTITADISTSTAYMELSSLRSEDTAVYYCARGGLRRMDYWGQGTLVTVSSASTKGPSVFPLAPCSRSTSESTAALGCLVKDYFPEPVTVSWNSGALTSGVHTFPAVLQSSGLYSLSSVVTVPSSSLGTKTYTCNVDHKPSNTKVDKRV[omitted - human IgG4 Fc with S228P (EU numbers)] light: DIQMTQSPSSLSASVGDRVTITCRASSSVSSTYLHWYQQKPGKAPKLLIYTTSTLASGVPSRFSGSGSGTDFTLTISSLQPEDFATYYCQQFSDSTWTFGQGTKLEIKRTVAAPSVFIFPPSDEQLKSGTASVVCLLNNFYPREAKVQWKVDNALQSGNSQESVTEQDSKDSTYSLSSTLTLSKADYEKHKVYACEVTHQGLSSPVTKSFNRGEC | 72.68 | 68.44 | 41.25 | 43.10
hz3F10-6.2: humanized anti-CD47 antibody, heavy chain SEQ ID NO: 153, light chain SEQ ID NO: 155 (antibody, heavy chain; light chain) heavy: QVQLVQSGAEVKKPGSSVKVSCKASGYTFSRYWIEWVRQAPGQGLEWMGEFIPGSDTTNYAQKFQGRVTITAEISTNTAYMELSSLRSEDTAVYYCARGGLRRMDYWGQGTLVTVSSASTKGPSVFPLAPCSRSTSESTAALGCLVKDYFPEPVTVSWNSGALTSGVHTFPAVLQSSGLYSLSSVVTVPSSSLGTKTYTCNVDHKPSNTKVDKRV[omitted - human IgG4 Fc with S228P (EU numbers)] light: DIQMTQSPSSLSASVGDRVTITCRASSSVSSTYLHWYQQKPGKAPKLWIYTTSTLASGVPSRFSGSGSGTSYTLTISSLQPEDFATYYCQQFSESTWTFGQGTKLEIKRTVAAPSVFIFPPSDEQLKSGTASVVCLLNNFYPREAKVQWKVDNALQSGNSQESVTEQDSKDSTYSLSSTLTLSKADYEKHKVYACEVTHQGLSSPVTKSFNRGEC | 61.91 | 68.64 | 49.32 | 44.19
hz3F10-2.1: humanized anti-CD47 antibody, heavy chain SEQ ID NO: 113, light chain SEQ ID NO: 115 (antibody, heavy chain; light chain) heavy: QVQLVQSGAEVKKPGSSVKVSCKASGYTFSRYWIEWVRQAPGQGLEWMGEFIPGSDTTNYAQKFQGRVTITADISTSTAYMELSSLRSEDTAVYYCARGGLRRMDYWGQGTLVTVSSASTKGPSVFPLAPCSRSTSESTAALGCLVKDYFPEPVTVSWNSGALTSGVHTFPAVLQSSGLYSLSSVVTVPSSSLGTKTYTCNVDHKPSNTKVDKRV[omitted - human IgG4 Fc with S228P (EU numbers)] light: DIQMTQSPSSLSASVGDRVTITCRASSSVSSTYLHWYQQKPGKAPKLLIYTTSTLASGVPSRFSGSGSGTDFTLTISSLQPEDFATYYCQQFSESTWTFGQGTKLEIKRTVAAPSVFIFPPSDEQLKSGTASVVCLLNNFYPREAKVQWKVDNALQSGNSQESVTEQDSKDSTYSLSSTLTLSKADYEKHKVYACEVTHQGLSSPVTKSFNRGEC | 72.68 | 68.44 | 47.24 | 55.23
hz16E5-1.1: humanized anti-CD47 antibody, heavy chain SEQ ID NO: 157, light chain SEQ ID NO: 159 (antibody, heavy chain; light chain) heavy: QVQLVQSGAEVKKPGASVKVSCKASGYTFTNYGMNWVRQAPGQGLEWMGWINTNTGEPTYAQKLQGRVTMTLDTSTRTAYMELRSLRSDDTAVYYCARFSHLRGPMDYWGQGTLVTVSSASTKGPSVFPLAPCSRSTSESTAALGCLVKDYFPEPVTVSWNSGALTSGVHTFPAVLQSSGLYSLSSVVTVPSSSLGTKTYTCNVDHKPSNTKVDKRV[omitted - human IgG4 Fc with S228P (EU numbers)] light: DIQMTQSPSSLSASVGDRVTITCRSSQSLVHSNGYTYLHWYQQKPGKAPKLLIYKVSNRFSGVPSRFSGSGSGTDFTLTISSLQPEDFATYYCSQSTHVPPTFGQGTKLEIKRTVAAPSVFIFPPSDEQLKSGTASVVCLLNNFYPREAKVQWKVDNALQSGNSQESVTEQDSKDSTYSLSSTLTLSKADYEKHKVYACEVTHQGLSSPVTKSFNRGEC | 61.87 | 68.21 | 14.79 | 4.02
hz3F10-3.1: humanized anti-CD47 antibody, heavy chain SEQ ID NO: 117, light chain SEQ ID NO: 119 (antibody, heavy chain; light chain) heavy: QVQLVQSGAEVKKPGSSVKVSCKASGYTFSRYWIEWVRQAPGQGLEWMGEFIPGSDTTNYAQKFQGRVTITADISTSTAYMELSSLRSEDTAVYYCARGGLRRMDYWGQGTLVTVSSASTKGPSVFPLAPCSRSTSESTAALGCLVKDYFPEPVTVSWNSGALTSGVHTFPAVLQSSGLYSLSSVVTVPSSSLGTKTYTCNVDHKPSNTKVDKRV[omitted - human IgG4 Fc with S228P (EU numbers)] light: DIQMTQSPSSLSASVGDRVTITCRASSSVSSTYLHWYQQKPGKAPKLLIYTTSTLASGVPSRFSGSGSGTSYTLTISSLQPEDFATYYCQQFSDSTWTFGQGTKLEIKRTVAAPSVFIFPPSDEQLKSGTASVVCLLNNFYPREAKVQWKVDNALQSGNSQESVTEQDSKDSTYSLSSTLTLSKADYEKHKVYACEVTHQGLSSPVTKSFNRGEC | 61.53 | 68.15 | 50.60 | 58.72
hz16E5-3.1: humanized anti-CD47 antibody, heavy chain SEQ ID NO: 173, light chain SEQ ID NO: 175 (antibody, heavy chain; light chain) heavy: QVQLVQSGAEVKKPGASVKVSCKASGYTFTNYGMNWVRQAPGQGLEWMGWINTNTGEPTYAQKLQGRVTMTLDTSTRTAYMELRSLRSDDTAVYYCARFSHLRGPMDYWGQGTLVTVSSASTKGPSVFPLAPCSRSTSESTAALGCLVKDYFPEPVTVSWNSGALTSGVHTFPAVLQSSGLYSLSSVVTVPSSSLGTKTYTCNVDHKPSNTKVDKRV[omitted - human IgG4 Fc with S228P (EU numbers)] light: DAQMTQSPSSLSASVGDRVTITCRSSQSLVHSNGYTYLHWYQQKPGKAPKLLIYKVSNRFSGVPSRFSGSGSGTDFTLTISSLQPEDFATYYCSQSTHVPPTFGQGTKLEIKRTVAAPSVFIFPPSDEQLKSGTASVVCLLNNFYPREAKVQWKVDNALQSGNSQESVTEQDSKDSTYSLSSTLTLSKADYEKHKVYACEVTHQGLSSPVTKSFNRGEC | 61.84 | 69.20 | 6.37 | 24.19
